Here are results for 3 molecules from PMC2542364.

Protein sequences, listed by entry. Tags and fused reporters are not part of them. Residues count along the entry.
UniProt Q9EQD0, residues 27-585: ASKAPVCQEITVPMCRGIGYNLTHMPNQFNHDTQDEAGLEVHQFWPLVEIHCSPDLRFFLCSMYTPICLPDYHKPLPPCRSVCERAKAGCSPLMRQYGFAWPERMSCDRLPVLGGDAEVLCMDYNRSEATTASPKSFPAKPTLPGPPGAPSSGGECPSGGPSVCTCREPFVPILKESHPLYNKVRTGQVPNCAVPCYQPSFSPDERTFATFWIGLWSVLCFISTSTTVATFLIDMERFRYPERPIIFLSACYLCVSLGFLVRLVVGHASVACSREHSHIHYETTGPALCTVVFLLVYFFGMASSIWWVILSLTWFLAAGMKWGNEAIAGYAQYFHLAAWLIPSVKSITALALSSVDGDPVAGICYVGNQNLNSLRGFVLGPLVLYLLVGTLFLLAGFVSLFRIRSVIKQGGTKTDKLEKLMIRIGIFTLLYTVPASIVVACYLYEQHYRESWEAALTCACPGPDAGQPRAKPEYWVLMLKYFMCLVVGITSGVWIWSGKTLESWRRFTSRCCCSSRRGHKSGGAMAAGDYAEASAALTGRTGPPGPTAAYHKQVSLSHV

These are yes or no findings as the source states them, for the method shown. In cells and extracts the contact can be indirect. Some results given as binding are weak or reduced against the parent protein; the word gives no strength. Sequences can lack the tags named with a protein.

In one experiment the target is mouse Fz5-HA (mouse) (UniProt Q9EQD0). Description: co-IP; lysates of transfected HEK 293T cells (Fz-HA with Sfrp1-myc or its derivatives), lysis buffer 150 mM NaCl, 1% NP40, 50 mM Tris pH 8; precipitated with anti-HA, blotted with anti-myc.
In the next experiment the target is T1, chick Wnt8c-HA (chick) (UniProt P51030).
T1 sequence: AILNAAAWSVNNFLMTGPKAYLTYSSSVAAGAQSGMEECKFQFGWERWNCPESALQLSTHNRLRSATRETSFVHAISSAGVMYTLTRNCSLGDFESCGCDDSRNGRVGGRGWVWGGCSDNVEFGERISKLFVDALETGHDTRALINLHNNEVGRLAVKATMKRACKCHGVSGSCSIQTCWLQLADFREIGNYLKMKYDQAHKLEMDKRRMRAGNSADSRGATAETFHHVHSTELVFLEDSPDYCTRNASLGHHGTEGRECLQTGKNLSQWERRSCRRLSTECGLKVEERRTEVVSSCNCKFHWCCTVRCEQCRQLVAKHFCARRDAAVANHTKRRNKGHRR
As to the kind of experiment: co-IP; conditioned media of separately transfected HEK 293T cells mixed for 2 hours; precipitated with polyclonal anti-HA and Protein G-Sepharose, four washes with lysis buffer (150 mM NaCl, 1% NP40, 50 mM Tris pH 8); blotted with monoclonal anti-myc (9E10).

Another experiment deals with T2, chick Sfrp1-myc (chick) (UniProt Q9DEQ4).
T2 sequence: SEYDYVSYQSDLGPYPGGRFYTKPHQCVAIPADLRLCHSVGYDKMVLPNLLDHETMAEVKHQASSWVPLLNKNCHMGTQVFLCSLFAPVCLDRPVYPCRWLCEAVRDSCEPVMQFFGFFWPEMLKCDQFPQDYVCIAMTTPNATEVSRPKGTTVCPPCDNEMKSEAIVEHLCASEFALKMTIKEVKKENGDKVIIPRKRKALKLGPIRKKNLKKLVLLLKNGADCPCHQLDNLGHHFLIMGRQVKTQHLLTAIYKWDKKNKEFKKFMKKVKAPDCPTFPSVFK
Description: co-IP; reverse immunoprecipitation: same mixed conditioned media precipitated with polyclonal anti-myc, blotted with monoclonal anti-HA.

Experiment [1] concerns the target T3, chick Sfrp1NTR-myc (chick) (UniProt Q9DEQ4).
T3 sequence (chain, glycosylated (migrates as a smear due to post-translational glycosylation)): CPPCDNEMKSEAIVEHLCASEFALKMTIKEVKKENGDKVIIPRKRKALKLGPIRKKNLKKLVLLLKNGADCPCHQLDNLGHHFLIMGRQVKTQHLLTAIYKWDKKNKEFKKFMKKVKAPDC
Described as above.

B1: chick Sfrp1NTR-myc (domain or fragment, UniProt Q9DEQ4 186-306)
chain: T3 sequence (chain, glycosylated (migrates as a smear due to post-translational glycosylation))
modifications: glycosylated (migrates as a smear due to post-translational glycosylation)
Regarding B1, the binding result in the experiment with mouse Fz5-HA (mouse) is on record as “no binding”; with chick Wnt8c-HA (chick), “binds”.

B2: chick Sfrp1-myc (protein, UniProt Q9DEQ4 32-314)
chain: T2 sequence
As for B2, the binding result in the experiment with mouse Fz5-HA (mouse) and with chick Wnt8c-HA (chick) was “binds” in each case.

B3: chick Wnt8c-HA (ligand, UniProt P51030 17-357)
chain: T1 sequence
For B3, the binding result (with chick Sfrp1-myc (chick); in experiment [1]) was “binds” throughout.
